Holding throughout (settings): 20 mM HEPES pH 7.9, 100 mM NaCl, 1 mM DTT, 0.2 mg/mL BSA, 0.02% Triton X-100, 2% milk, 0.4 mg/mL salmon testes DNA; 1 h; temperature not stated; high values mean tight binding; double strand, one strand shown; sequences stand for … in GCCTAGCAC…GTGCTAGGTCTTGATTCGCTTGACGCTGCTG
For one assay, the target named is PU.1 (IVT) (UniProt P17947). The assay can be described thus: protein-binding microarray (PBM).
Assay [1] deals with T1, FLI1 (endogenous, THP-1 nuclear extract) (UniProt Q01543).
T1 sequence: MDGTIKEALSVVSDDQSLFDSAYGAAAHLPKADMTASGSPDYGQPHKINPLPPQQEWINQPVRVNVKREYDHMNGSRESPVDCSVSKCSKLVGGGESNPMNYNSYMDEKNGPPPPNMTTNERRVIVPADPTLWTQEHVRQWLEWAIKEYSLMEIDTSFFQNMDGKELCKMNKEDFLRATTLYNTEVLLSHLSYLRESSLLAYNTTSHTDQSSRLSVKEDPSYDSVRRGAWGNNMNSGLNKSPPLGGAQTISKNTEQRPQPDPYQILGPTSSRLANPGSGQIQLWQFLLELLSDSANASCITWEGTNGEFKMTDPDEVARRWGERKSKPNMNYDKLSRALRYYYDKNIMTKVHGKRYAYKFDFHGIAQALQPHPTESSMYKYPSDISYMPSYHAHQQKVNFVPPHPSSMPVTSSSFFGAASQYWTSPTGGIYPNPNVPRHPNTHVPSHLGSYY
In words: nuclear extract protein-binding microarray (nextPBM).

Assay [2] deals with PU.1 (endogenous, THP-1 nuclear extract) + IRF8 (endogenous, THP-1 nuclear extract). The assay is described as above.

This is one part of the list. For part of these data: At the low end of the ranking, values are background and their order means little. For part of these data: The protein was read in a cell extract, so binding may be indirect.

Here are results for 21 sequences from PMC6451091.

On to TAAAGTAGGAACTGAAACCA, for which the binding signal stood at 2 z-score with PU.1 (IVT), 1.63 z-score in assay [1] and 25.7 z-score in assay [2].
As for AAAAAAAGGACATGAAAGTA, the binding signal with PU.1 (IVT) is -0.0433 z-score; in assay [1] it was -0.0186 z-score; in assay [2] it was 1.98 z-score.
The matching figures for TGAGAGGAGAAGGGAAACCT: 0.319 z-score, 1.06 z-score and 0.279 z-score.
The matching figures for TGAGAGGAGAAGTGAATCCT: 1.46 z-score, 0.561 z-score and 0.188 z-score.
With TGAAACAGGAAGTGAAACTA, the binding signal with PU.1 (IVT) was found to be 6.92 z-score; in assay [1] it was 6.05 z-score; in assay [2], 85.5 z-score.
In the case of AAAAAGAGGAAATGAAAGTA, the binding signal in the assay with PU.1 (IVT) is 6.54 z-score; in assay [1], 4.16 z-score; in assay [2] it was 39.9 z-score.
GAGAAGAGGAACTGAAAGCT: the binding signal with PU.1 (IVT) came out at 4.24 z-score; in assay [1], 1.97 z-score; in assay [2], 3.84 z-score.
The matching figures for CTGGCAGGGATCTGAAACTC: -0.00696 z-score, 0.0679 z-score and 3.76 z-score.
The matching figures for TGAGAGGAGACGTGAAACCT: -0.741 z-score, 0.0971 z-score and 2.43 z-score.
The matching figures for AGAAACAGGAAGTGAAACCA: 7.3 z-score, 5.79 z-score and 77 z-score.
Regarding CTAAGAAGGAACTGAAACTT, the results for the binding signal (with PU.1 (IVT); in assay [1]; in assay [2]) were 2.36 z-score, 0.911 z-score and 13.4 z-score, respectively.
The like results for AAAAAAAGGAAATCAAAGTA were, in that order, 2.26 z-score, 1.63 z-score and 0.0615 z-score.
Consider ATTAAACGGAAGTGAAACTT, for which the binding signal in the assay with PU.1 (IVT) came to 4.33 z-score; in assay [1], 4.76 z-score; in assay [2], 58.7 z-score.
The like results for TTGGCAGGGAACTGAAACTC were, in that order, 0.435 z-score, 0.129 z-score and 10.4 z-score.
The like results for CCGCCAGGGAAGTGAAAGCA were, in that order, 0.995 z-score, 0.423 z-score and 3.4 z-score.
The like results for AGATTGTGGAAGTGAAAGTA were, in that order, 2.72 z-score, 1.73 z-score and 30.7 z-score.
As to TAAAGGCGGAACTGAAACCA, the binding signal in the assay with PU.1 (IVT) was found to be 3.31 z-score; in assay [1], 2.51 z-score; in assay [2], 34.5 z-score.
For the sequence TAAAAGAGGAACAGAAACTC, the binding signal in the assay with PU.1 (IVT) is 5.06 z-score; in assay [1] it was 1.94 z-score; in assay [2], 33.1 z-score.
On to CTGCGAGGGAAGTGAAAGCA, for which the results for the binding signal (with PU.1 (IVT); in assay [1]; in assay [2]) were 1.48 z-score, 1.4 z-score and 7.93 z-score, respectively.
GTTTTGAGGAAGTGAAACTA: the binding signal worked out at 6.78 z-score in the assay with PU.1 (IVT), 4.24 z-score in assay [1] and 79.5 z-score in assay [2].
As to GAAATAGGGAAGTGAAACTG, the binding signal in the assay with PU.1 (IVT) was found to be 7.09 z-score; in assay [1] it was 3.62 z-score; in assay [2], 79.2 z-score.
